Source: the supplement of paper PMC3334620
The full ranking holds about 33,000 sequences; the median of “E-score (-0.5 to 0.5)” is about -0.012, and the highest 2% start at about 0.27. The list shows a part of the results.

target: T1, Vhr1 (UniProt P40522); assay: PBM E-score (8-mer binding enrichment) (E-score (-0.5 to 0.5)); higher = stronger / more preferred TF binding; most listed sequences are background and not binding sites; settings: protein concentration: 200 nM; construct: GST-full length
T1 sequence: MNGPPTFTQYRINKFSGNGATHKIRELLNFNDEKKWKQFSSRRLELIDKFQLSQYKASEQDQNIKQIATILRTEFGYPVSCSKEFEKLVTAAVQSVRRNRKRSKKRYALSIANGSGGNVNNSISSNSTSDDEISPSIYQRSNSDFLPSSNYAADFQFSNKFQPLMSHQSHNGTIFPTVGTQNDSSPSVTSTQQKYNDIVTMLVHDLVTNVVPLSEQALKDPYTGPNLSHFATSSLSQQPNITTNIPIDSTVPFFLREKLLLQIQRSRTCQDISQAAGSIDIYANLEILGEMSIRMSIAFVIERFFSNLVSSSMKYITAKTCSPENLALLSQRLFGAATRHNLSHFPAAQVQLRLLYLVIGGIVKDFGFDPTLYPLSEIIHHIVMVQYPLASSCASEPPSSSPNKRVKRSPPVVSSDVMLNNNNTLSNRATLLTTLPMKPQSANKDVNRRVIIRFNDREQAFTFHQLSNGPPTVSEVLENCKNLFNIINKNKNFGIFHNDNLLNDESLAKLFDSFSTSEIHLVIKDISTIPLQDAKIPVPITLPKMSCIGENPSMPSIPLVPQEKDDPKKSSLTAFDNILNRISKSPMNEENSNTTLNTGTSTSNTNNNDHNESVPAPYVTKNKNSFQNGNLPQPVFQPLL
How it was run: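 E-scores (a modified Wilcoxon-Mann-Whitney statistic) were assigned by the Universal PBM Analysis Suite to every ungapped eight-base word pooled with its reverse complement. The input came from universal all-10-mer Agilent arrays made double-stranded by primer extension and probed with GST-tagged yeast transcription factors at about 100-200 nM. Fluorescent anti-GST detected bound protein, and masliner normalised the scans.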

Sequence	PBM E-score
CTCGTCAA	0.0355
AGTTATAC	0.0762
ACCGAGAC	0.0377
ACTAAGAC	0.0313
GTTCGCGA	0.0419
CTGTAAAC	-0.116
TAGAGGGA	-0.0999
CGTATACC	-0.00821
CTTCCCTC	0.0173
ACCTCCCT	0.0523
ACGCCACA	0.0233
CGGCATCC	-0.0935
AAGCAGGT	-0.064
ACCGGAGC	-0.062
CGAATACG	0.122
CAACCTCG	-0.0372
GCCTGACA	-0.198
CTATCTAC	-0.0686
TACCAACA	0.145
TCTGTGCA	0.0513
TGGAGAAA	-0.212
CCAATCTA	0.111
AATCCCGC	0.0617
AGTAAGTC	0.0628
AGTCGTCA	0.165

Sequence	PBM E-score
GGCAAAAA	-0.058
AAAACGCG	0.0358
ACATCTCT	0.157
AACATTTG	-0.224
CTAGCTTC	0.0748
CGCCAGTA	0.0114
GATCGTAC	0.062
AAGGTCCG	-0.0694
CAGTTTCC	0.0137
GATTCGCC	0.105
TGGCCAAA	-0.255
ACCACCTC	-0.0353
GGAGGGTA	0.0984
CCCTACAA	0.0169
CAAAAGGC	-0.0731
TTAAACAA	-0.193
CATCCGGG	-0.0984
CATTTTCC	-0.255
GGCACGCC	-0.218
GTATACGA	0.132
AATGAACA	0.0601
CGGCCACA	-0.0182
GCATGCTA	-0.138
ACGACCCA	0.224
ATGTATAC	0.165

Sequence	PBM E-score
CATTGATC	0.0435
GAACTTTA	-0.295
CGGGCCTA	0.0265
GACGAGCC	0.151
ACCCGGAT	0.0629
CGGACCAG	-0.0971
ACACGGCG	0.0799
CAAAGCGC	-0.217
ATGAATGG	0.234
CGCAATTC	-0.0548
ACGCGTAA	-0.0808
AGGCTCAA	-0.263
AACCTCAT	-0.0289
GCAACAGA	-0.122
ATCCCGCC	0.205
ACCACAGG	0.0559
GGCTATAA	-0.0926
AGATAGAT	-0.155
ATCCTTAG	-0.116
ATCTCACG	-0.12
CAGCACCC	-0.143
GCTGGCAC	-0.156
ATTTGTCC	-0.0847
ATCAAGAG	0.166
CTCACCAA	0.265

Sequence	PBM E-score
ACGTGCGA	-0.0503
ATGGAATC	0.28
ATTGGACC	-0.12
CTGATGCC	-0.162
CTTTCTCC	-0.2
CTAATCAC	0.27
ACTACATA	0.133
AACCGCAA	0.175
GTCTCTAA	-0.167
CCAAAGCC	-0.193
CCGTCTAG	-0.047
ACACAGTC	0.181
CTCATGGC	0.187
TAGCTATA	-0.048
GCCCTAAC	-0.0388
AAGGACTG	-0.127
GTTCCCGA	0.00116
TAAGGCTA	-0.257
AAGAGATT	-0.158
GCGACGAA	0.0555
ACGTAAAA	-0.26
CCTTTAAA	-0.311
AAGCAATG	-0.0104
CCCTTGTC	-0.251
GGAGATAA	-0.185

Sequence	PBM E-score
ATAGTGCC	-0.0541
CCGCACGC	0.166
ACCTTACA	-0.227
ATCGGAAT	-0.0572
CCTCTGGA	-0.189
ACATAAGG	-0.0382
GCCTGTCA	-0.0151
AGGACGAT	0.0428
GGACGGTA	-0.276
AGGAACCG	-0.0195
CACGCGAC	0.0304
CGCGCATA	0.033
GGTTACTA	0.0689
AACACATC	0.159
ATCCGACG	0.00306
AGAGCGCT	-0.249
AACTGACG	-0.282
CCGTTCGC	0.0113
AGTTGAAG	-0.164
CCGCAGCC	0.133
CACATAAC	0.142
ACACCCTA	0.138
AAGCAACC	0.0341
GACATGCA	-0.0716
ATGGGTCG	0.217

Sequence	PBM E-score
GTCGCATA	0.0641
CGACAGCA	0.0483
GCATGTGA	0.0944
AGATACAG	0.0855
GATCTCGA	0.0431
ACTGGCAG	0.0407
AGGCCTTC	-0.179
CGACCTTC	-0.0354
ACCTGAGT	0.129
CCTTTTGC	-0.0879
ACTTTAAG	-0.0348
ACGCCTGC	-0.166
GCATCCGC	-0.0139
AGGATCCC	-0.0452
GCTCCTAA	-0.101
ACACGCAG	0.0348
GGGATAAA	0.014
GGTCAAAC	-0.0444
CCCTCGCA	-0.0314
GCAACTGA	0.147
GCTCAGAA	-0.042
GTCGGAAC	0.0979
CGGCGTAA	-0.00942
CTCATACA	-0.0304
AATTCCAA	-0.0421

Sequence	PBM E-score
CTTCCAGA	-0.152
AAACAGAA	-0.133
CCTCACTA	-0.0453
ATCGGCCC	0.0461
TATTAGGA	-0.0487
ACTGGATC	0.195
ATACTGCA	0.234
CGCCACTC	0.106
CAGATCAG	-0.112
CGACTATA	0.112
CTATCCAC	0.0438
AGCCCTAA	-0.136
ACACACGA	0.155
AGAGAAAT	-0.243
AAACGTGG	-0.113
GAGGTGCA	-0.073
AAAGCGCC	-0.148
CGTTCCTA	-0.0348
AAATGAAT	-0.0848
AGATAATA	0.00292
ATTACTTC	-0.157
CCTTTGGA	-0.153
CACTCACC	0.206
AAGGCTCT	-0.215
AGTCCCCC	-0.208

Sequence	PBM E-score
AGAAGAAT	-0.176
ATGTCCCC	-0.0931
AGTCTCGG	-0.0846
ATGGCATA	0.079
AGCCCATG	0.203
CTTATATC	0.0719
AGGATAGA	-0.194
CCTAATCA	0.203
AGATCCCC	-0.0804
CTCTTAAA	-0.236
CAGGACGG	-0.052
ATCTCAAT	0.0525
ACAGTGCT	0.205
ACGCTAAT	-0.0837
TAACCTTA	-0.00794
AATATACA	0.197
GGTGGTGA	0.0672
CGTGTTCA	0.125
ATTTAAAC	0.114
AGTCACTG	0.384
CTCCTTAA	-0.05
GGCTGGAC	-0.215
ACGAACTC	0.193
ATATGTCG	0.0263
CTCTTGCA	-0.12

Sequence	PBM E-score
TAATGGCA	-0.00432
ATCTCACC	0.0965
ACCTTGAC	0.0362
ACATCCTC	0.0891
ACCATGAT	0.219
CTAGTCAA	0.124
GGGTAGAC	0.0469
CGGCCAAG	-0.15
TTGGCAAA	-0.00309
GCTCAAGA	-0.16
CTGTATTC	0.0706
GGTGTGTA	0.109
CCGAATCC	0.0952
CCGATGAG	-0.00284
CCATTGCC	0.0112
CGCTCGCC	0.0915
AGTCTCCA	-0.0176
CTCCGCGA	0.157
CACAACCA	0.262
TACATCAA	0.0869
AGATTTGG	-0.00959
CCGACTCG	0.238
AAGCGGCG	0.0196
GAGTGGGC	-0.0581
AATTCTGC	-0.00295

Sequence	PBM E-score
GCCAGCGA	0.109
AGACCACT	-0.0144
AATAAGTC	-0.0469
AACGGTTA	-0.108
AACTTATT	0.145
ACACTAGC	-0.0833
AACAGAGA	0.133
ATGGGGCC	-0.237
CTATGTTC	0.0962
AATAGTAT	0.0714
CAATGAAG	-0.136
CCATCAAC	-0.0122
CACTTCGC	-0.0734
GCCTGTAC	-0.0433
CCGGCTCG	0.0952
CGACGAGA	-0.0965
GGGAACCC	0.048
CATGAAAA	-0.162
AACTGTAG	0.124
AAGTATCC	-0.139
CGGACACG	-0.0121
AAATACAA	-0.0296
CGGGGGTC	-0.258
GTTGCCCA	0.0694
AGCTTGTG	0.042

Sequence	PBM E-score
GTGCTACA	-0.0774
GGATCCCC	-0.137
CATCTGCA	0.175
CTTGGCCC	-0.247
ATACTCCC	0.102
AAGTAGTA	-0.0424
CGCGAATC	0.193
ACCAAGAA	0.0592
TTCGAAAA	-0.0591
TAGCAGAA	-0.0156
ATTTAGCA	0.0238
AGGATGAG	0.225
ACGTGGAA	-0.114
AGGGAGAC	0.0505
CCTCTGGC	-0.0458
GCAGAGCC	-0.254
CTATTGCC	-0.181
AACACTGA	0.124
AACGGAAG	0.00071
CCGTTCAA	-0.0693
GTAATCCA	8e-05
AGAATCAA	0.0929
CCGAAACC	-0.129
ACTCCATG	0.251
CACGCTAG	-0.0447

Sequence	PBM E-score
GGGCTAAC	-0.138
AACTCATC	0.209
CGGCGTGC	-0.0246
ATTAGTTA	0.143
CAGCCGAC	-0.0193
TCCTTAGA	-0.227
CACGTCCA	-0.107
AGACCTGA	-0.0508
ATCGCGCA	-0.0739
GAACACAA	-0.00229
GTCATCAC	0.229
GCCTCTCC	-0.0997
AATATTAG	0.135
ATGCTGAA	0.0202
AAGCCATC	0.0852
ACAGTAGG	0.075
AGCGCACG	-0.0655
ATTCAGTG	0.0826
AGACTATC	-0.0494
TAGGGAGA	0.0563
AGGCGTGC	-0.0791
GAGGGAGC	-0.215
CCGGCGAG	0.144
AGGTTTAA	-0.0358
CGTCAGTA	0.02

Sequence	PBM E-score
AAAACGAG	-0.281
ATCCCCTG	-0.0897
ACTGCTTG	-0.051
ACTACAGA	0.185
TGATATAA	-0.163
ACTTCCAT	-0.079
GGGTCCTA	-0.0725
CATTGACC	0.0487
CGACAACA	0.128
ATTTTCCA	-0.191
GGTCGCAC	0.0284
CTTCATAA	0.0573
CCACTAGG	-0.0941
AATACCGC	0.191
TGCCCGAA	-0.112
GAGAAGCC	-0.184
ACGCCTTA	-0.13
GTATCCGA	0.0575
CCACGGAA	-0.0432
GAAGTCGC	0.0553
GAGCTACC	-0.0728
GCTGTGCC	0.0888
CCAATAAG	-0.27
AGTTCGAA	-0.0122
CTTCGGTA	-0.205

Sequence	PBM E-score
GCCTCTTA	-0.0439
GTAACAAA	0.0465
CACTGACC	0.0246
CTCTCAAC	0.00283
AGAGGATG	-0.106
AACACAGG	0.0235
ACCTCACG	-0.0286
CTAATGCC	-0.0404
GGTATCGA	0.19
CGTGAACC	-0.0372
ACCGTATC	0.152
CATATAAG	-0.0564
CGATTACC	0.0034
AGGCTAAG	-0.166
AGACAAAT	-0.0582
CTTCGCTA	-0.115
TCAGAGAA	0.102
ACCTGTCG	-0.0197
CGTCGAAG	0.0798
